{"source": "the supplement of paper PMC7580552", "note": "Counter-ions that a name gives are not always drawn. The list shows a part of the results. Repeats are few or missing, and single values can be far off.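 Also: stationary (unshaken) cultures in 96-well plates, started at OD600 0.05 from mid-exponential cells, with compounds supplied from DMSO stocks.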"}
{"tested_on": "Escherichia coli W3110", "assay": "planktonic growth (OD600) relative to untreated control; higher = more growth", "details": "10 µM; 20-24 h; 30 °C; TB", "units": {"planktonic growth": "%"}}
{"smiles": "C[C@H]1O[C@@H](O[C@H]2[C@@H](O)C[C@H](O[C@H]3[C@@H](O)C[C@H](O[C@H]4CC[C@@]5(C)[C@H](CC[C@@H]6[C@@H]5C[C@@H](O)[C@]5(C)[C@@H](C7=CC(=O)OC7)CC[C@]65O)C4)O[C@@H]3C)O[C@@H]2C)C[C@H](O)[C@@H]1O", "note": "[Digoxin]", "planktonic growth": 93}
{"smiles": "CCCCc1cc2ccccc2c(OCCN(C)C)n1", "note": "[Dimethisoquin hydrochloride]", "planktonic growth": 98}
{"smiles": "CC(C(=O)O)c1ccc2c(c1)[nH]c1ccc(Cl)cc12", "note": "(stereo unspecified) [Carprofen]", "planktonic growth": 98}
{"smiles": "Cc1cccc(C)c1NC(=O)C(C)N", "note": "(stereo unspecified) [Tocainide hydrochloride]", "planktonic growth": 83}
{"smiles": "CN(C)C(=O)C(CCN1CCC(O)(c2ccc(Cl)cc2)CC1)(c1ccccc1)c1ccccc1", "note": "[Loperamide hydrochloride]", "planktonic growth": 100}
{"smiles": "Cc1ccccc1C(=O)Nc1ccc(C(=O)N2CCCC(O)c3cc(Cl)ccc32)c(C)c1", "note": "(stereo unspecified) [Tolvaptan]", "planktonic growth": 95}
{"smiles": "CC(C)(C)NCC(O)COc1cccc2c1CCC(=O)N2", "note": "(stereo unspecified) [Carteolol hydrochloride]", "planktonic growth": 102}
{"smiles": "C=C1c2c(Cl)ccc(O)c2C(=O)C2=C(O)[C@]3(O)C(=O)C(C(N)=O)=C(O)[C@@H](N(C)C)[C@@H]3[C@@H](O)[C@H]12.O=C(O)c1cc(S(=O)(=O)O)ccc1O", "note": "[Meclocycline sulfosalicylate]", "planktonic growth": 34}
{"smiles": "CCOC(=O)O[C@]1(C(=O)COC(=O)CC)CC[C@H]2[C@@H]3CCC4=CC(=O)C=C[C@]4(C)[C@H]3[C@@H](O)C[C@@]21C", "note": "[Prednicarbate]", "planktonic growth": 103}
{"smiles": "CC(=O)NCCCS(=O)(=O)O", "note": "[Acamprosate calcium]", "planktonic growth": 96}
{"smiles": "O=C(C1CCCCC1)N1CC(=O)N2CCc3ccccc3C2C1", "note": "(stereo unspecified) [Praziquantel]", "planktonic growth": 96}
{"smiles": "C(=C\\c1ccccc1)/CN1CCN(C(c2ccccc2)c2ccccc2)CC1", "note": "[Cinnarizine]", "planktonic growth": 106}
{"smiles": "COc1ccc2c(c1)c(CC(=O)O)c(C)n2C(=O)c1ccc(Cl)cc1", "note": "[Indomethacin]", "planktonic growth": 98}
{"smiles": "CN1CCC(=C2c3ccccc3CCc3cccnc32)CC1", "note": "[Azatadine maleate]", "planktonic growth": 93}
{"smiles": "Nc1nc2ccc(OC(F)(F)F)cc2s1", "note": "[Riluzole hydrochloride]", "planktonic growth": 106}
{"smiles": "CN(C(=O)C(Cl)Cl)c1ccc(OC(=O)c2ccco2)cc1", "note": "[Diloxanide furoate]", "planktonic growth": 98}
{"smiles": "Nc1ccn([C@H]2CC[C@@H](CO)O2)c(=O)n1", "note": "[Zalcitabine]", "planktonic growth": 98}
{"smiles": "Oc1c(I)cc(Cl)c2cccnc12", "note": "[Clioquinol]", "planktonic growth": 37}
{"smiles": "CC(C)(C#N)c1cc(Cn2cncn2)cc(C(C)(C)C#N)c1", "note": "[Anastrozole]", "planktonic growth": 112}
{"smiles": "CN(C)CCOC(C)(c1ccccc1)c1ccccn1", "note": "(stereo unspecified) [Doxylamine succinate]", "planktonic growth": 94}
{"smiles": "CC(=O)c1ccc2c(c1)N(CCCN(C)C)c1ccccc1S2", "note": "[Acetopromazine maleate salt]", "planktonic growth": 94}
{"smiles": "CC[C@H](C)[C@H](N)C1=N[C@H](C(=O)N[C@@H](CC(C)C)C(=O)N[C@H](CCC(=O)O)C(=O)N[C@H](C(=O)N[C@H]2CCCCNC(=O)[C@H](CC(N)=O)NC(=O)[C@@H](CC(=O)O)NC(=O)[C@H](Cc3cnc[nH]3)NC(=O)[C@@H](Cc3ccccc3)NC(=O)[C@H]([C@@H](C)CC)NC(=O)[C@@H](CCCN)NC2=O)[C@@H](C)CC)CS1", "note": "[Bacitracin]", "planktonic growth": 85}
{"smiles": "OC(CNCC(O)C1CCc2cc(F)ccc2O1)C1CCc2cc(F)ccc2O1", "note": "(stereo unspecified) [Nebivolol hydrochloride]", "planktonic growth": 107}
{"smiles": "CN1CCN(CCCN2c3ccccc3Sc3ccc(C(F)(F)F)cc32)CC1", "note": "[Trifluoperazine dihydrochloride]", "planktonic growth": 99}
{"smiles": "CN(C)CCN1C(=O)c2ccccc2N(C)c2ccccc21", "note": "[Dibenzepine hydrochloride]", "planktonic growth": 96}
{"smiles": "COc1ccc(OC)c(C(O)CNC(=O)CN)c1", "note": "(stereo unspecified) [Midodrine hydrochloride]", "planktonic growth": 100}
{"smiles": "CCCN1CCCC[C@H]1C(=O)Nc1c(C)cccc1C", "note": "[Ropivacaine hydrochloride]", "planktonic growth": 96}
{"smiles": "COc1cc(C(=O)NCc2ccc(OCCN(C)C)cc2)cc(OC)c1OC", "note": "[Trimethobenzamide hydrochloride]", "planktonic growth": 99}
{"smiles": "CC(C)NCC(O)COc1ccc(CCOCC2CC2)cc1", "note": "(stereo unspecified) [Betaxolol hydrochloride]", "planktonic growth": 90}
{"smiles": "CCc1nc(N)nc(N)c1-c1ccc(Cl)cc1", "note": "[Pyrimethamine]", "planktonic growth": 95}
{"smiles": "CC(=O)[C@@]1(O)CC[C@H]2[C@@H]3C[C@H](C)C4=CC(=O)C=C[C@]4(C)[C@@]3(F)[C@@H](O)C[C@@]21C", "note": "[Fluorometholone]", "planktonic growth": 103}
{"smiles": "C1CCC(C(CC2CCCCN2)C2CCCCC2)CC1", "note": "(stereo unspecified) [Perhexiline maleate]", "planktonic growth": 103}
{"smiles": "CCOc1nc2cccc(C(=O)OCc3oc(=O)oc3C)c2n1Cc1ccc(-c2ccccc2-c2noc(=O)[nH]2)cc1", "note": "[Azilsartan kamedoxomil]", "planktonic growth": 95}
{"smiles": "O=C(O)c1cn(C2CC2)c2cc(N3CCNCC3)c(F)cc2c1=O", "note": "[Ciprofloxacin hydrochloride monohydrate]", "planktonic growth": 21}
{"smiles": "COc1ccc(-c2cc(=S)ss2)cc1", "note": "[Anethole-trithione]", "planktonic growth": 96}
{"smiles": "C#CCN[C@@H]1CCc2ccccc21", "note": "[Rasagiline]", "planktonic growth": 91}
{"smiles": "CCOC(=O)O[C@]1(C(=O)OCCl)CC[C@H]2[C@@H]3CCC4=CC(=O)C=C[C@]4(C)[C@H]3[C@@H](O)C[C@@]21C", "note": "[Loteprednol etabonate]", "planktonic growth": 92}
{"smiles": "Cc1ccc(NC(=O)c2ccc(CN3CCN(C)CC3)cc2)cc1Nc1nccc(-c2cccnc2)n1", "note": "[Imatinib]", "planktonic growth": 106}
{"smiles": "C[C@H]1c2cccc(O)c2C(=O)C2=C(O)[C@]3(O)C(=O)C(C(N)=O)=C(O)[C@@H](N(C)C)[C@@H]3[C@@H](O)[C@@H]21", "note": "[Doxycycline hydrochloride]", "planktonic growth": 28}
{"smiles": "C[C@](N)(Cc1ccc(O)c(O)c1)C(=O)O", "note": "[Methyldopa (L,-)]", "planktonic growth": 103}
{"smiles": "c1cnc(N2CCN(Cc3ccc4c(c3)OCO4)CC2)nc1", "note": "[Piribedil hydrochloride]", "planktonic growth": 91}
{"smiles": "Clc1ccc(C(Cn2ccnc2)OCc2ccsc2Cl)c(Cl)c1", "note": "(stereo unspecified) [Tioconazole]", "planktonic growth": 89}
{"smiles": "CCCC1C(=O)N2C(N(C)C)=Nc3ccc(C)cc3N2C1=O", "note": "(stereo unspecified) [Azapropazone]", "planktonic growth": 101}
{"smiles": "CN[C@@H]1[C@@H](O[C@H]2O[C@H](CO)[C@@H](N)[C@H](O)[C@H]2O)OC2C[C@@H](N)[C@@H](O[C@H]3[C@H](O)[C@@H](O)[C@H](N)C[C@@H]3N)OC2[C@@H]1O", "note": "(stereo partly specified) [Apramycin]", "planktonic growth": 93}
{"smiles": "Cc1c(-c2ccccc2)oc2c(C(=O)OCCN3CCCCC3)cccc2c1=O", "note": "[Flavoxate hydrochloride]", "planktonic growth": 108}
{"smiles": "NS(=O)(=O)c1cc2c(cc1Cl)NC(C(Cl)Cl)NS2(=O)=O", "note": "(stereo unspecified) [Trichlormethiazide]", "planktonic growth": 93}
{"smiles": "CN[C@@H]1[C@H](O)[C@H](NC)[C@H]2O[C@@]3(O)C(=O)C[C@@H](C)O[C@H]3O[C@@H]2[C@H]1O", "note": "[Spectinomycin dihydrochloride]", "planktonic growth": 70}
{"smiles": "CC(C)Nc1cccnc1N1CCN(C(=O)c2cc3cc(NS(C)(=O)=O)ccc3[nH]2)CC1", "note": "[Delavirdine]", "planktonic growth": 109}
{"smiles": "Cc1onc(-c2ccccc2Cl)c1C(=O)N[C@@H]1C(=O)N2[C@@H]1SC(C)(C)[C@@H]2C(=O)O", "note": "[Cloxacillin sodium salt]", "planktonic growth": 85}
{"smiles": "N[C@@H](C(=O)N[C@@H]1C(=O)N2C(C(=O)O)=C(Cl)CC[C@H]12)c1ccccc1", "note": "[Loracarbef]", "planktonic growth": 67}
{"smiles": "C#Cc1cccc(Nc2ncnc3cc(OCCOC)c(OCCOC)cc23)c1", "note": "[Erlotinib]", "planktonic growth": 99}
{"smiles": "CN(C)CCC=C1c2ccccc2COc2ccccc21", "note": "[Doxepin hydrochloride]", "planktonic growth": 94}
{"smiles": "CC(C)[N+](C)(CCOC(=O)C1c2ccccc2Oc2ccccc21)C(C)C", "note": "[Propantheline bromide]", "planktonic growth": 94}
{"smiles": "COc1ccccc1Oc1c(NS(=O)(=O)c2ccc(C(C)(C)C)cc2)nc(-c2ncccn2)nc1OCCO", "note": "[Bosentan]", "planktonic growth": 99}
{"smiles": "Nc1ccccc1S(N)(=O)=O", "note": "[2-Aminobenzenesulfonamide]", "planktonic growth": 96}
{"smiles": "Cn1cnc2c1c(=O)[nH]c(=O)n2C", "note": "[Theobromine]", "planktonic growth": 96}
{"smiles": "CCN(CC)CCNC(=O)c1cc(Cl)c(N)cc1OC", "note": "[Metoclopramide monohydrochloride]", "planktonic growth": 105}
{"smiles": "CCOc1ccc2ccccc2c1C(=O)N[C@@H]1C(=O)N2[C@@H]1SC(C)(C)[C@@H]2C(=O)O", "note": "[Nafcillin sodium salt monohydrate]", "planktonic growth": 104}
{"smiles": "CN(C)C/C=C(/c1ccc(Br)cc1)c1cccnc1", "note": "[Zimelidine dihydrochloride monohydrate]", "planktonic growth": 82}
{"smiles": "CC(C)(CO)C(O)C(=O)NCCCO", "note": "(stereo unspecified) [Panthenol (D)]", "planktonic growth": 95}
{"smiles": "C=C1/C(=C\\C=C2/CCC[C@]3(C)[C@@H]([C@H](C)CCCC(C)C)CC[C@@H]23)C[C@@H](O)C[C@@H]1O", "note": "[Alfacalcidol]", "planktonic growth": 95}
{"smiles": "Cc1ccc2c(c1)c1c3n2CCNC3CCC1", "note": "(stereo unspecified) [Pirlindole mesylate]", "planktonic growth": 96}
{"smiles": "CCC[C@@H]1C[C@@H](C(=O)N[C@@H]([C@H]2O[C@H](SC)[C@H](O)[C@@H](O)[C@H]2O)[C@H](C)Cl)N(C)C1", "note": "[Clindamycin hydrochloride]", "planktonic growth": 70}
{"smiles": "O=C(N[C@H](CO)[C@H](O)c1ccc([N+](=O)[O-])cc1)C(Cl)Cl", "note": "[Chloramphenicol]", "planktonic growth": 36}
{"smiles": "CC(=O)O[C@@]12CO[C@@H]1C[C@H](O)[C@@]1(C)C(=O)[C@H](O)C3=C(C)[C@@H](OC(=O)[C@H](O)[C@@H](NC(=O)OC(C)(C)C)c4ccccc4)C[C@@](O)([C@@H](OC(=O)c4ccccc4)[C@H]21)C3(C)C", "note": "[Docetaxel]", "planktonic growth": 91}
{"smiles": "Nc1ccn([C@@H]2O[C@H](CO)[C@@H](O)C2(F)F)c(=O)n1", "note": "[Gemcitabine]", "planktonic growth": 87}
